Measurements reported in paper PMC12820563, “FoxP3 forms a head-to-head dimer in vivo and stabilizes its multimerization on adjacent microsatellites”.
Some of the results follow.

biological target: T1, MBP-FoxP1dN (Mus musculus, UniProt P58462 326-579); assay: PD-seq (MBP pull-down with sequencing); 20 mM Tris-HCl pH 7.5, 100 mM NaCl, 1.5 mM MgCl2, 0.4 uM protein, 0.1 uM dsDNA library, 30 min, room temperature, amylose pull-down; high values mean tight binding; conditions: protein: recombinant; tags: His6-MBP; chain copies: 2; dsDNA, one strand shown
T1 sequence: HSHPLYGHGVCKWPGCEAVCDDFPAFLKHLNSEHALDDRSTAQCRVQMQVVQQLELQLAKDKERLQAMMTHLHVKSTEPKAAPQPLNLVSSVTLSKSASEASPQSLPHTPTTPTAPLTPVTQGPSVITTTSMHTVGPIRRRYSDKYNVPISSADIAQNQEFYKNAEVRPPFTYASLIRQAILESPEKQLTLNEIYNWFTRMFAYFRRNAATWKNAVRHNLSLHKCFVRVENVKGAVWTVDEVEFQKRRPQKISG
How it was run: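 Amylose resin was used to capture complexes formed during 30 min at room temperature in Tris pH 7.5 buffer with NaCl and MgCl2 between 0.4 µM His6-MBP-tagged mouse FoxP3 or FoxP1 fragment lacking the N-terminus, expressed in E. coli, and 0.1 µM Klenow-filled double-stranded degenerate DNA library. After three washes, the DNA was released with proteinase K, barcoded by PCR and sequenced on Illumina. Binding is pooled-replicate reads-per-million enrichment, pull-down over input.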

Sequence | binding signal
GATGATTGTTCTCCCAGCTGATGAATTCAGAAGCTCGAGTAAACAAATTTTCCTAATCTTTCTGTTCAAGCGCCATCTAC | 0.766 RPM ratio (pull-down/input)
GATGATTGTTCTCCCAGCTGATGAATTGGGTTGCTCGAGTAAACAAATTTTCCTAATCTTTCTGTTCAAGCGCCATCTAC | 0.894 RPM ratio (pull-down/input)
GATGATTGTTCTCCCAGCTGATGAATTACTTCGATCGAGTAAACAAATTTTCCTAATCTTTCTGTTCAAGCGCCATCTAC | 1.01 RPM ratio (pull-down/input)
GATGATTGTTCTCCCAGCTGATGAATTTACTTCGTCGAGTAAACAAATTTTCCTAATCTTTCTGTTCAAGCGCCATCTAC | 1.18 RPM ratio (pull-down/input)
GATGATTGTTCTCCCAGCTGATGAATTTACATGGTCGAGTAAACAAATTTTCCTAATCTTTCTGTTCAAGCGCCATCTAC | 1.15 RPM ratio (pull-down/input)
GATGATTGTTCTCCCAGCTGATGAATTGTCTCAGTCGAGTAAACAAATTTTCCTAATCTTTCTGTTCAAGCGCCATCTAC | 1.02 RPM ratio (pull-down/input)
GATGATTGTTCTCCCAGCTGATGAATTACGAGCGTCGAGTAAACAAATTTTCCTAATCTTTCTGTTCAAGCGCCATCTAC | 1.02 RPM ratio (pull-down/input)
GATGATTGTTCTCCCAGCTGATGAATTCACTCGTTCGAGTAAACAAATTTTCCTAATCTTTCTGTTCAAGCGCCATCTAC | 0.934 RPM ratio (pull-down/input)
GATGATTGTTCTCCCAGCTGATGAATTGTTATAATCGAGTAAACAAATTTTCCTAATCTTTCTGTTCAAGCGCCATCTAC | 1.59 RPM ratio (pull-down/input)
GATGATTGTTCTCCCAGCTGATGAATTTCCCCGTTCGAGTAAACAAATTTTCCTAATCTTTCTGTTCAAGCGCCATCTAC | 0.895 RPM ratio (pull-down/input)
GATGATTGTTCTCCCAGCTGATGAATTCCGTGCCTCGAGTAAACAAATTTTCCTAATCTTTCTGTTCAAGCGCCATCTAC | 0.86 RPM ratio (pull-down/input)
GATGATTGTTCTCCCAGCTGATGAATTCCGTTGGTCGAGTAAACAAATTTTCCTAATCTTTCTGTTCAAGCGCCATCTAC | 0.871 RPM ratio (pull-down/input)
GATGATTGTTCTCCCAGCTGATGAATTGATCTTATCGAGTAAACAAATTTTCCTAATCTTTCTGTTCAAGCGCCATCTAC | 1.08 RPM ratio (pull-down/input)
GATGATTGTTCTCCCAGCTGATGAATTGAAAGACTCGAGTAAACAAATTTTCCTAATCTTTCTGTTCAAGCGCCATCTAC | 0.811 RPM ratio (pull-down/input)
GATGATTGTTCTCCCAGCTGATGAATTCACCCATTCGAGTAAACAAATTTTCCTAATCTTTCTGTTCAAGCGCCATCTAC | 1.02 RPM ratio (pull-down/input)
GATGATTGTTCTCCCAGCTGATGAATTCAAGCCATCGAGTAAACAAATTTTCCTAATCTTTCTGTTCAAGCGCCATCTAC | 0.974 RPM ratio (pull-down/input)
GATGATTGTTCTCCCAGCTGATGAATTCAGCCGCTCGAGTAAACAAATTTTCCTAATCTTTCTGTTCAAGCGCCATCTAC | 0.795 RPM ratio (pull-down/input)
GATGATTGTTCTCCCAGCTGATGAATTCATGAGTTCGAGTAAACAAATTTTCCTAATCTTTCTGTTCAAGCGCCATCTAC | 0.888 RPM ratio (pull-down/input)
GATGATTGTTCTCCCAGCTGATGAATTCTGACTATCGAGTAAACAAATTTTCCTAATCTTTCTGTTCAAGCGCCATCTAC | 0.945 RPM ratio (pull-down/input)
GATGATTGTTCTCCCAGCTGATGAATTATCACCATCGAGTAAACAAATTTTCCTAATCTTTCTGTTCAAGCGCCATCTAC | 1.08 RPM ratio (pull-down/input)
GATGATTGTTCTCCCAGCTGATGAATTCGGCAAATCGAGTAAACAAATTTTCCTAATCTTTCTGTTCAAGCGCCATCTAC | 0.926 RPM ratio (pull-down/input)

Sequence | binding signal
GATGATTGTTCTCCCAGCTGATGAATTGGTACCGTCGAGTAAACAAATTTTCCTAATCTTTCTGTTCAAGCGCCATCTAC | 0.956 RPM ratio (pull-down/input)
GATGATTGTTCTCCCAGCTGATGAATTGTCTAAGTCGAGTAAACAAATTTTCCTAATCTTTCTGTTCAAGCGCCATCTAC | 1.09 RPM ratio (pull-down/input)
GATGATTGTTCTCCCAGCTGATGAATTTTAAGTGTCGAGTAAACAAATTTTCCTAATCTTTCTGTTCAAGCGCCATCTAC | 1.01 RPM ratio (pull-down/input)
GATGATTGTTCTCCCAGCTGATGAATTTCCGTGCTCGAGTAAACAAATTTTCCTAATCTTTCTGTTCAAGCGCCATCTAC | 0.787 RPM ratio (pull-down/input)
GATGATTGTTCTCCCAGCTGATGAATTCACCTTTTCGAGTAAACAAATTTTCCTAATCTTTCTGTTCAAGCGCCATCTAC | 0.881 RPM ratio (pull-down/input)
GATGATTGTTCTCCCAGCTGATGAATTTTAGGGGTCGAGTAAACAAATTTTCCTAATCTTTCTGTTCAAGCGCCATCTAC | 0.805 RPM ratio (pull-down/input)
GATGATTGTTCTCCCAGCTGATGAATTAGCCTACTCGAGTAAACAAATTTTCCTAATCTTTCTGTTCAAGCGCCATCTAC | 0.878 RPM ratio (pull-down/input)
GATGATTGTTCTCCCAGCTGATGAATTCGACCGGTCGAGTAAACAAATTTTCCTAATCTTTCTGTTCAAGCGCCATCTAC | 0.774 RPM ratio (pull-down/input)
GATGATTGTTCTCCCAGCTGATGAATTTAGTGGATCGAGTAAACAAATTTTCCTAATCTTTCTGTTCAAGCGCCATCTAC | 0.904 RPM ratio (pull-down/input)
GATGATTGTTCTCCCAGCTGATGAATTTTAGAATTCGAGTAAACAAATTTTCCTAATCTTTCTGTTCAAGCGCCATCTAC | 0.918 RPM ratio (pull-down/input)
GATGATTGTTCTCCCAGCTGATGAATTCTCACCATCGAGTAAACAAATTTTCCTAATCTTTCTGTTCAAGCGCCATCTAC | 0.916 RPM ratio (pull-down/input)
GATGATTGTTCTCCCAGCTGATGAATTACCTAAATCGAGTAAACAAATTTTCCTAATCTTTCTGTTCAAGCGCCATCTAC | 1.15 RPM ratio (pull-down/input)
GATGATTGTTCTCCCAGCTGATGAATTGGCCCGATCGAGTAAACAAATTTTCCTAATCTTTCTGTTCAAGCGCCATCTAC | 0.782 RPM ratio (pull-down/input)
GATGATTGTTCTCCCAGCTGATGAATTAGAGATCTCGAGTAAACAAATTTTCCTAATCTTTCTGTTCAAGCGCCATCTAC | 0.832 RPM ratio (pull-down/input)
GATGATTGTTCTCCCAGCTGATGAATTCACAATTTCGAGTAAACAAATTTTCCTAATCTTTCTGTTCAAGCGCCATCTAC | 1.08 RPM ratio (pull-down/input)
GATGATTGTTCTCCCAGCTGATGAATTAAATTGCTCGAGTAAACAAATTTTCCTAATCTTTCTGTTCAAGCGCCATCTAC | 1.05 RPM ratio (pull-down/input)
GATGATTGTTCTCCCAGCTGATGAATTCATAAAGTCGAGTAAACAAATTTTCCTAATCTTTCTGTTCAAGCGCCATCTAC | 0.905 RPM ratio (pull-down/input)
GATGATTGTTCTCCCAGCTGATGAATTCGGTAACTCGAGTAAACAAATTTTCCTAATCTTTCTGTTCAAGCGCCATCTAC | 0.833 RPM ratio (pull-down/input)
GATGATTGTTCTCCCAGCTGATGAATTTCATTAGTCGAGTAAACAAATTTTCCTAATCTTTCTGTTCAAGCGCCATCTAC | 0.848 RPM ratio (pull-down/input)
GATGATTGTTCTCCCAGCTGATGAATTTACCGTTTCGAGTAAACAAATTTTCCTAATCTTTCTGTTCAAGCGCCATCTAC | 1.17 RPM ratio (pull-down/input)
GATGATTGTTCTCCCAGCTGATGAATTGTATGCATCGAGTAAACAAATTTTCCTAATCTTTCTGTTCAAGCGCCATCTAC | 1.47 RPM ratio (pull-down/input)

Sequence | binding signal
GATGATTGTTCTCCCAGCTGATGAATTGGATTATTCGAGTAAACAAATTTTCCTAATCTTTCTGTTCAAGCGCCATCTAC | 0.928 RPM ratio (pull-down/input)
GATGATTGTTCTCCCAGCTGATGAATTTACATGATCGAGTAAACAAATTTTCCTAATCTTTCTGTTCAAGCGCCATCTAC | 1.42 RPM ratio (pull-down/input)
GATGATTGTTCTCCCAGCTGATGAATTCCTCAGGTCGAGTAAACAAATTTTCCTAATCTTTCTGTTCAAGCGCCATCTAC | 0.743 RPM ratio (pull-down/input)
GATGATTGTTCTCCCAGCTGATGAATTCATTTTCTCGAGTAAACAAATTTTCCTAATCTTTCTGTTCAAGCGCCATCTAC | 0.867 RPM ratio (pull-down/input)
GATGATTGTTCTCCCAGCTGATGAATTGAATTACTCGAGTAAACAAATTTTCCTAATCTTTCTGTTCAAGCGCCATCTAC | 0.826 RPM ratio (pull-down/input)
GATGATTGTTCTCCCAGCTGATGAATTTGATGTCTCGAGTAAACAAATTTTCCTAATCTTTCTGTTCAAGCGCCATCTAC | 1.07 RPM ratio (pull-down/input)
GATGATTGTTCTCCCAGCTGATGAATTAAGAAGCTCGAGTAAACAAATTTTCCTAATCTTTCTGTTCAAGCGCCATCTAC | 0.87 RPM ratio (pull-down/input)
GATGATTGTTCTCCCAGCTGATGAATTGAAAGAGTCGAGTAAACAAATTTTCCTAATCTTTCTGTTCAAGCGCCATCTAC | 0.824 RPM ratio (pull-down/input)
GATGATTGTTCTCCCAGCTGATGAATTATTAGCTTCGAGTAAACAAATTTTCCTAATCTTTCTGTTCAAGCGCCATCTAC | 1.11 RPM ratio (pull-down/input)
GATGATTGTTCTCCCAGCTGATGAATTCAAGCTATCGAGTAAACAAATTTTCCTAATCTTTCTGTTCAAGCGCCATCTAC | 0.968 RPM ratio (pull-down/input)
GATGATTGTTCTCCCAGCTGATGAATTAGTCGTATCGAGTAAACAAATTTTCCTAATCTTTCTGTTCAAGCGCCATCTAC | 1.01 RPM ratio (pull-down/input)
GATGATTGTTCTCCCAGCTGATGAATTCAGACTCTCGAGTAAACAAATTTTCCTAATCTTTCTGTTCAAGCGCCATCTAC | 0.763 RPM ratio (pull-down/input)
GATGATTGTTCTCCCAGCTGATGAATTGTCAGGTTCGAGTAAACAAATTTTCCTAATCTTTCTGTTCAAGCGCCATCTAC | 0.882 RPM ratio (pull-down/input)
GATGATTGTTCTCCCAGCTGATGAATTTCGTCACTCGAGTAAACAAATTTTCCTAATCTTTCTGTTCAAGCGCCATCTAC | 0.938 RPM ratio (pull-down/input)
GATGATTGTTCTCCCAGCTGATGAATTCGCCATTTCGAGTAAACAAATTTTCCTAATCTTTCTGTTCAAGCGCCATCTAC | 0.911 RPM ratio (pull-down/input)
GATGATTGTTCTCCCAGCTGATGAATTTTCTTCATCGAGTAAACAAATTTTCCTAATCTTTCTGTTCAAGCGCCATCTAC | 1 RPM ratio (pull-down/input)
GATGATTGTTCTCCCAGCTGATGAATTACCGAGATCGAGTAAACAAATTTTCCTAATCTTTCTGTTCAAGCGCCATCTAC | 0.942 RPM ratio (pull-down/input)
GATGATTGTTCTCCCAGCTGATGAATTGAAGAGGTCGAGTAAACAAATTTTCCTAATCTTTCTGTTCAAGCGCCATCTAC | 0.797 RPM ratio (pull-down/input)
GATGATTGTTCTCCCAGCTGATGAATTCGCCAAATCGAGTAAACAAATTTTCCTAATCTTTCTGTTCAAGCGCCATCTAC | 0.936 RPM ratio (pull-down/input)
GATGATTGTTCTCCCAGCTGATGAATTTTTAGGCTCGAGTAAACAAATTTTCCTAATCTTTCTGTTCAAGCGCCATCTAC | 0.893 RPM ratio (pull-down/input)
GATGATTGTTCTCCCAGCTGATGAATTATTTCGCTCGAGTAAACAAATTTTCCTAATCTTTCTGTTCAAGCGCCATCTAC | 1.04 RPM ratio (pull-down/input)
